Consider 83 molecules from PubChem BioAssay AID1346428 (National Center for Advancing Translational Sciences (NCATS), 2018).

Values joined by “and” are separate entries in the source; they are usually repeats but may differ in a detail not shown here. Equal values may be shown once. Screen size: about 48,000 compounds; about 1,200 (2.5%) were called active. About 2% were inconclusive and are not listed.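 Rule for the calls: active = activation of at least 60% and not above a set upper limit (about 1 call in 100 departs from these limits); inconclusive = activation of 40% to 60%, or above that upper limit; inactive = activation under 40%.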 This is one part of the list.

The test deals with Probable G-protein coupled receptor 32 (Homo sapiens) (UniProt O75388). Kind of test: qHTS for Agonists of Human Resolvin D1 Receptor DRV1. Note: 0% is about no effect. The following applies: CHO-K1 GPR32 beta-arrestin PathHunter luminescence, 90 min; at 76.9 µM; stronger effect = higher value; zero percent set by DMSO-only wells. A digest of the protocol: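 Step 1: seed CHO-K1 GPR32 beta-arrestin cells, 2,500/well, overnight at 37 °C. Step 2: add compounds, 90 min at 37 °C. Step 3: detection reagent, 1 h ambient, then luminescence.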
UniProt O75388, sequence (O75388 whole entry, looked up): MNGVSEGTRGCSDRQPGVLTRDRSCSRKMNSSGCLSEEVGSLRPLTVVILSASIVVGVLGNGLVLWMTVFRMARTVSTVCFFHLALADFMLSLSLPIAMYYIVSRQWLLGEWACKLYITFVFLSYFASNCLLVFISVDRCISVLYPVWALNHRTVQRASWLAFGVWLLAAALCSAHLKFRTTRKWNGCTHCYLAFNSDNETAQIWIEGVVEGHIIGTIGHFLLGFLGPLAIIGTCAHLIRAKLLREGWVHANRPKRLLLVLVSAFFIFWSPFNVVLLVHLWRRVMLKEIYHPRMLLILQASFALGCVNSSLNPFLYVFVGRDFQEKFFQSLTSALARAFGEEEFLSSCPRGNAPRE
`CCOc1ccccc1NS(=O)(=O)c1ccc2oc(=O)c3ncn(C)c3c2c1`: the activation was inactive: 20.5%.

Take `Cc1ccc(NC(=O)Cn2cc(S(=O)(=O)N3CCCC3)c(S(=O)(=O)N3CCCC3)c2)c(C)c1`: the activation is inactive: 3.93%.

For the molecule `CC(C)Nc1cccnc1N1CCN(C(=O)c2cc3cc(NS(C)(=O)=O)ccc3[nH]2)CC1`, the activation was inactive: 13.1%.

On to `COc1ccc(C(=O)c2cn(CC(=O)Nc3ccc4c(c3)OCO4)c3ccc(OC)cc3c2=O)cc1`, for which the activation is inactive: 4.16%.

`O=C(NCCc1ccc(Cl)cc1)c1cccn1-c1nnc(N2CCCC2)s1`: the activation was inactive: -21.6%.

In the case of `CCc1ccccc1NC(=O)c1cc(S(=O)(=O)NC2CCCC2)ccc1F`, the activation is inactive: -17.3%.

With `CCCn1cc(S(=O)(=O)c2ccccc2)c(=O)c2cc(F)c(N3CCCC3)cc21`, the activation was inactive: -8.28%.

Take `COc1ccc(C(=O)N2CCC(C(=O)Nc3ccccc3Cl)CC2)cc1`: the activation was inactive: -0.732%.

With `Cc1cccc(NC(=O)CSc2nc3c([nH]c4ccccc43)c(=O)n2-c2ccc(F)cc2)c1C`, the activation was inactive: -14.5%.

`Cc1cccc(OCC(=O)Nc2ccc3c(c2)N(C)C(=O)c2ccccc2S3)c1`: the activation is inactive: -15.7%.

With `Nc1ccc(S(=O)(=O)Nc2ccccc2)cc1`, the activation is inactive: -13.4%.

As to `COc1ccc(-n2nc(C(=O)N3CCN(c4cccc(C)c4)C(C)C3)c3c4ccccc4n(C)c3c2=O)cc1` (stereo not drawn), the activation is inactive: -4.32%.

Turning to `Cc1ccc(C(=O)N/C(=C\c2cn(S(=O)(=O)N(C)C)c3ccccc23)C(=O)NCCCn2ccnc2)cc1`, the activation was inactive: 25.2%.

Turning to `COc1ccc(NC(=O)c2ccco2)cc1NC(=O)COc1ccccc1Cl`, the activation is active: 64.3%.

As for `Cc1ccc(-n2c3c(cc(-c4nc(-c5ccc(Cl)cc5)cs4)c2=O)C(=O)CC(C)(C)C3)cc1`, the activation is inactive: 17.7%.

Consider `CCOC(=O)c1c(C)[nH]c(CCC(=O)Nc2cc(C)cc(C)c2)c1C`, for which the activation was inactive: -20.2%.

On to `O=C(Cn1nc(C(F)(F)F)c2c1CCCC2)Nc1ccc(Cl)cc1`, for which the activation is inactive: 43.5%.

As to `COc1cc(OC)cc(C(=O)Nc2ccc(S(=O)(=O)Nc3onc(C)c3C)cc2)c1`, the activation is inactive: -9.28%.

With `COc1cccc(CNC(=O)CN2C(=O)CCn3nc(-c4cn(C)c5ccccc45)cc32)c1OC`, the activation is inactive: 8.27%.

Consider `CCOC(=O)c1cccc(NC(=O)c2cc(-c3ccc(Cl)s3)nc3ccccc23)c1`, for which the activation is inactive: -9.36%.

As to `CCc1ccc(N2C(=O)CSC23C(=O)N(Cc2cccc(F)c2)c2ccccc23)cc1` (stereo not drawn), the activation is inactive: -24.3%.

In the case of `CCN(CC)CCCNC(=O)c1cn(C)c2ccc(S(=O)(=O)N3CCOCC3)cc2c1=O`, the activation was inactive: -0.411%.

Take `COc1ccc(NC(=O)Cn2ncc3c([nH]c4ccccc43)c2=O)cc1Cl`: the activation is inactive: -5.73%.

For the molecule `Cc1ccc(NC(=O)CSc2nc(C)cc(C)c2C(=O)Nc2cccc(C)c2)cc1`, the activation was inactive: -14.8%.

Regarding `O=C(NCCc1ccccc1)c1ccc(CSc2nc3ccncc3n2Cc2ccccc2)cc1`, the activation is inactive: -22.5%.

Take `COc1ccc(Br)cc1CNC(=O)CN1C(=O)CSc2ccc(S(=O)(=O)N3CCOCC3)cc21`: the activation is inactive: -13.6%.

For the molecule `Cc1ccc(NC(=O)c2cc3c(=O)n(Cc4cccnc4)ccc3nc2C)cc1F`, the activation is inactive: -4.01%.

As for `CCC(C(=O)NCc1ccccc1)n1ncn2c(cc3occc32)c1=O` (stereo not drawn), the activation was inactive: -20.4%.

Regarding `Cc1cccc(C(=O)Nc2cccc(C(=O)OCc3cc(=O)n4ccsc4n3)c2)c1`, the activation is inactive: -12.7%.

As to `CCOC(=O)c1ccc2ncc(C(=O)OCC)c(Nc3ccc(C)c(Br)c3)c2c1`, the activation is inactive: -5.33%.

Turning to `COc1ccc(NC(=O)CNS(=O)(=O)c2cccs2)c(OC)c1`, the activation is inactive: -2.13%.

Consider `COc1ccc(OC(C)C(=O)NCc2nc(-c3ccc(Cl)cc3)no2)cc1` (stereo not drawn), for which the activation was inactive: 5.79%.

For `COc1ccccc1NC(=O)C1=C(C)Nc2ncnn2C1c1ccccn1` (stereo not drawn), the activation was inactive: -9.74%.

Take `Cn1c(=O)c2[nH]c(-c3ccccc3)nc2n(C)c1=O`: the activation was inactive: 0.824%.

Consider `O=c1c2oc3ccccc3c2n(Cc2cccc(C(F)(F)F)c2)c(=O)n1Cc1ccc2c(c1)OCO2`, for which the activation was inactive: -18.2%.

Regarding `COc1ccc(OC)c(CNC(=O)c2cccc(NC(=O)N3CCSc4ncccc43)c2)c1`, the activation was inactive: -5.85%.

On to `NS(=O)(=O)c1cc2c(cc1Cl)NC=NS2(=O)=O`, for which the activation was inactive: -2.18% and inactive: -0.118%.

As for `CC(C)Sc1ncc(Cl)c(C(=O)Nc2ccc(S(=O)(=O)N3CCCCC3C)cc2)n1` (stereo not drawn), the activation was inactive: -17.1%.

As to `CCOc1ccc(NC(=O)CSc2cc(C)c3ccccc3n2)cc1`, the activation is inactive: -7.91%.

Turning to `O=C(NCc1cccs1)c1nn(-c2ccccc2)nc1CO`, the activation is inactive: -13.3%.

`CCOc1ccc(CNC(=O)CN2C(=O)CCn3nc(-c4cn(C)c5ccccc45)cc32)cc1OC`: the activation is inactive: 17.6%.

On to `CCCn1c2ccccc2c2cnn(CC(=O)Nc3cccc(C(=O)OCC)c3)c(=O)c21`, for which the activation is inactive: -15.3%.

Take `CC(C)OC(=O)c1cc2c(OCC(O)CNC(C)(C)C)cccc2[nH]1` (stereo not drawn): the activation was inactive: 14.3%.

In the case of `Cc1ccc(S(=O)(=O)c2nc(-c3ccco3)oc2SC(C)C)cc1`, the activation was inactive: -39.2%.

Turning to `Cc1ccc(NC(=O)Cn2c(=O)n(-c3ccc(C)cc3)c(=O)c3ccc(C(=O)NCc4ccccc4Cl)cc32)cc1`, the activation was inactive: -2.77%.

As for `COc1ccc(CCNC(=O)Cc2c(C)c3c(cc(C)c4c(C)c(C)oc43)oc2=O)cc1OC`, the activation is inactive: -7.54%.

On to `COc1ccc(NC(=O)c2cc(-c3ccc4c(c3)OCO4)on2)c(OC)c1`, for which the activation was inactive: -4.18%.

On to `CCOC(=O)c1cccc(NC(=O)CCS(=O)(=O)c2ccc(Br)s2)c1`, for which the activation is inactive: -7.97%.

For the molecule `Cc1ccc(NC(=O)CN2Cc3ccccc3C2=O)c(C)c1`, the activation is inactive: -12.2%.

As to `CN1CC(=O)N/C1=N/C(=O)Nc1cccc(Cl)c1`, the activation was inactive: -5.37% and inactive: -58.5%.

As to `CC(=O)Nc1nonc1-c1nnc(SCc2ccc(F)cc2Cl)n1C`, the activation was inactive: -1.13%.

As to `Cc1cc(C)cc(NC(=O)c2sc3nc(-c4ccccc4)cn3c2C)c1`, the activation is inactive: -24.3%.

As to `CC1(C(=O)NC2CCCCC2)Cc2ccccc2C(=O)N1Cc1ccc(Cl)cc1` (stereo not drawn), the activation is inactive: -24.3%.

On to `COc1cccc(C2C(C(=O)Nc3ccc(Cl)cc3)=C(C)Nc3c(C(=O)Nc4ccccc4)cnn32)c1OC` (stereo not drawn), for which the activation was inactive: -11.6%.

On to `Cn1c(=O)c2c(nc(SCC(=O)Nc3ccc(F)cc3F)n2Cc2ccccc2)n(C)c1=O`, for which the activation was inactive: 10.5%.

`Cc1c(C)n(Cc2ccc(F)cc2)c2ccc(C(=O)N3CCN(c4ccc(Cl)cc4)CC3)cc12`: the activation is inactive: -24.7%.

As to `COC(=O)c1ccccc1C(=O)c1ccc(OCCN2CCCCC2)cc1`, the activation is inactive: -6.16%.

Consider `CCOC(=O)C1CCN(c2cc3c(cc2NC(=O)c2ccc(OC)c(OC)c2)n(C)c(=O)n3C)CC1`, for which the activation is inactive: -14%.

On to `CC1CCCCN1S(=O)(=O)c1ccc(F)c(C(=O)Nc2ccccc2C(F)(F)F)c1` (stereo not drawn), for which the activation was inactive: -10.2%.

Take `Cc1cn2c(=O)cc(COc3cc(C)c(Cl)c(C)c3)nc2s1`: the activation is inactive: -3.23%.

For `CCC(C)NC(=O)Cn1c(=O)n(CCCC(=O)NCc2ccc(C)cc2)c(=O)c2ccccc21` (stereo not drawn), the activation is inactive: -0.937%.

Turning to `CCOc1ccc(NC(=O)CN(c2ccccc2OCC)S(=O)(=O)c2ccccc2)cc1`, the activation is inactive: -5.86%.

Turning to `CCOc1cc2sc(N3CCC(C(=O)Nc4ccc(C(C)C)cc4)CC3)nc2cc1Br`, the activation was inactive: -26.9%.

On to `Cc1cccc(CNC(=O)Cc2csc3ccccc23)c1`, for which the activation was inactive: -24.9%.

Take `COc1ccc(S(=O)(=O)N2CCN(Cc3nc4ccc(C)cc4o3)CC2)cc1OC`: the activation is inactive: -11.2%.

In the case of `O=C(O)Cc1c[nH]c2ccc(O)cc12`, the activation is inactive: 14.1%.

For the molecule `Cc1cc(=O)n(Cc2cccc(Br)c2)c2c1c(C)nn2-c1ccccc1`, the activation was inactive: -11.5%.

Take `Cc1cc(Cl)ccc1NS(=O)(=O)c1ccc2c(c1)CCN2S(C)(=O)=O`: the activation is inactive: 18.9%.

With `Cc1ccc(Nc2nnc(-c3ccc(C)c(S(=O)(=O)N4CCCCC4)c3)c3ccccc23)cc1`, the activation was inactive: 4.03%.

With `Cc1ccc(C(CC(=O)NCC2(c3ccccc3)CCCC2)c2ccccc2)c(O)c1` (stereo not drawn), the activation was active: 63.3%.

For the molecule `Cc1ccc(CCNC(=O)CN2C(=O)COc3ccc(S(=O)(=O)N4CCCCC4)cc32)cc1`, the activation was inactive: -21.6%.

Regarding `CCOc1ccc2c(c1)[C@@H]1C=CC[C@@H]1[C@H](c1ccccc1Cl)N2`, the activation was inactive: -14.2%.

`Cc1ccc(CNC(C)c2ccccc2)s1` (stereo not drawn): the activation was inactive: 0.248%.

Consider `CC(C)(C)OC(=O)N1CCC(c2c(C(=O)Nc3ccc4c(c3)OCCO4)cnn2-c2ccc(F)cc2)CC1`, for which the activation was inactive: -36.1%.

Turning to `COc1ccc(OC)c(NCc2cccn2-c2nnc(N3CCC(C)CC3)s2)c1`, the activation is inactive: -18.5%.

With `COc1ccc(C2C(=O)N(C3CCCCCC3)CC(=O)N2CCc2ccccc2)cc1` (stereo not drawn), the activation is inactive: -0.91%.

Consider `O=C(NCCc1ccccc1)c1ccc2c(c1)N(Cc1ccccc1)C(=O)c1ccccc1S2=O` (stereo not drawn), for which the activation was inactive: -15%.

For `Cc1cccc(-c2nc3c(cnn3-c3ccccc3)c(=O)n2-c2cccc(Cl)c2)c1`, the activation was inactive: 5.53%.

As to `CN(C)c1ccc(CNC(=O)c2cc3ccccn3n2)cc1`, the activation is inactive: 5.13%.

`Cc1ccc(C)c(NC(=O)CCCN2C(=O)COc3ccc(C)cc32)c1`: the activation is inactive: -30.3%.

For `Cc1cc(C)cc(NC(=O)CSc2nnc(COc3ccccc3Cl)o2)c1`, the activation is inactive: -5.61%.

On to `CCN(CC)S(=O)(=O)c1ccc2c(c1)c(=O)c(C(=O)N(C)Cc1ccccc1)cn2C`, for which the activation is inactive: -9.08%.

As to `CC(C)(C)OC(=O)N1CCC(c2c(C(=O)Nc3cccc(C(F)(F)F)c3)cnn2-c2ccc(F)cc2F)CC1`, the activation is inactive: -29.9%.
